# This is one part of the list. At the low end of the ranking the order means little.
# Biological target: MAX:MAX (p21) (UniProt P61244-2)
# Experiment: protein-binding microarray (anti-MAX antibody)
# Conditions: PBM: 15 mM Tris-HCl pH 7.5, 100 mM KCl, 0.075% NP40, 7.5 mM beta-mercaptoethanol, 375 ng/ul BSA, 8 ng/ul poly(dA-dT):(dA-dT), 550 ng complex, 60 min, room …; high values mean tight binding; double strand, one strand shown; sequences stand for … in CCGGC…TTAATAGCTAAGATTACTATATCGACG
row,Sequence,binding signal (log2 normalized fluorescence)
1,TGATCAGAGGTA,-0.421
2,TGAAAACTTGTA,-0.947
3,TGATTTGCAGTA,-1.02
4,CGGCTCGTGGTA,2.83
5,TGACTCGTGCTG,2.92
6,TGATGTCGCGTA,-0.12
7,TGACGTGAAGTA,0.269
8,TGATTTCATGTA,-0.0703
9,TGATCTTTCGTA,-1.28
10,TGACAGTTAGTA,-0.587
11,TGATCAGTCGTA,-0.894
12,CCTCACGTGGTA,3.26
13,TGATCGGCGGTA,-0.884
14,TGAAGCTGCGTA,-0.854
15,GGACTCGTGATA,3.03
16,TGATGTAGCGTA,-0.431
17,TGATGACACGTA,0.641
18,TGAAGAATTGTA,-0.924
19,TGATGTGAGGTA,0.197
20,TGAAGGCCCGTA,-0.779
21,TGATCACAGGTA,0.41
22,TGAGGGTTTGTA,-0.842
23,TGAGTAAATGTA,-1.03

row,Sequence,binding signal (log2 normalized fluorescence)
1,TCACACCTGTTA,2.73
2,TGAGCCGCAGTA,-1.11
3,TGACGTTAAGTA,-0.283
4,TGCGTCGTGGTA,1.51
5,TGAGAGGACGTA,-0.633
6,TGATTCATCGTA,-0.789
7,TGACACGCCGTA,2.42
8,TGAGGACGGGTA,-0.465
9,TGATAACCCGTA,-0.251
10,TGACCTCGCGTA,1.02
11,TGATGTCCTGTA,0.176
12,TGACCACTAGTA,-0.116
13,TGAGAGAATGTA,-0.684
14,TGATCTGTGGTA,-0.713
15,TGAGAGCTCGTA,-0.984
16,TGAATGAATGTA,0.0478
17,TGAGAATACGTA,-0.622
18,TGAGGGTGAGTA,-0.306
19,TGACGCCTCGTA,-0.311
20,TGACTAAGCGTA,-0.723
21,TGAAGGAGGGTA,-0.228
22,TGAGCCTATGTA,-0.921
23,TGACTCACGGTA,0.412

row,Sequence,binding signal (log2 normalized fluorescence)
1,TGATTGTTTGTA,-1.1
2,TGAGGCTCTGTA,-0.775
3,TGAAGCCAAGTA,-0.737
4,TGAAGCAGCGTA,-0.345
5,TGAGTTCTTGTA,-1.08
6,TGACTACTAGTA,-0.604
7,TGACATACGGTA,0.646
8,TGATGTAGGGTA,0.0352
9,TGATGGGGCGTA,0.264
10,TGAAGGCACGTA,0.169
11,TGAATCTGTGTA,-0.879
12,TGAGTGATCGTA,0.187
13,TGAATTCATGTA,-0.0758
14,TGAGATTAAGTA,-1.33
15,TGAGCGTGCGTA,2.15
16,TGAACCGAAGTA,-0.755
17,TGACGCGGCGTA,0.0901
18,GAAGCTTTGGTG,-1.18
19,TGACGCGGAGTA,-0.194
20,TGAAGGGCGGTA,-0.00457
21,TGACAGAAAGTA,-0.581
22,TTTCACATGGTA,3.34
23,TGAGGCAATGTA,-0.283

row,Sequence,binding signal (log2 normalized fluorescence)
1,TGATCCTTCGTA,-1.05
2,TGACGTGGTGTA,1.52
3,TTTCAGGTGGTA,1.74
4,TGAAGTGCAGTA,-0.233
5,TGATCAGTGGTA,-0.305
6,TGAGATTTGGTA,-1.41
7,TGAAACTAAGTA,-0.806
8,TGAAACGGGATA,-0.38
9,TGAGAGAGGGTA,-0.986
10,TGACATCACGTA,0.859
11,CGACGAGTGGTA,0.424
12,TGAAAGAACGTA,-0.363
13,TGAGTCACAGTA,-0.394
14,TGACTGAAGGTA,-0.366
15,TGACAAGTCGTA,-0.594
16,TGACAGAACGTA,-0.288
17,TGAGATAACGTA,-0.741
18,TGAATCCCTGTA,-0.621
19,TGACGTATGGTA,0.599
20,TGACACCATGTA,1.19
21,TGACACGAGATA,2.72
22,TGAGTAGTAGTA,-1.19
23,TGACAAAGAGTA,-0.735

row,Sequence,binding signal (log2 normalized fluorescence)
1,TGAAGCGGGGTA,0.358
2,TGAACATTCGTA,-0.0864
3,TGAACAAAAGTA,-0.814
4,TGAAATAATGTA,-0.485
5,TGAGCCGTCGTA,-1.09
6,GGACAACTGGTA,-0.317
7,CCACACGTGGTA,2.95
8,TGATGGTACGTA,0.184
9,TGACCACGTGTA,3.2
10,TGAGCGTCTGTA,-0.723
11,TGAACGACTGTA,-0.347
12,TGAGTATACGTA,-0.889
13,TGAGTATAGGTA,-1.07
14,TGACTAGTCGTA,-0.905
15,TGAGAGTTGGTA,-1.2
16,TGACAACAGGTA,-0.156
17,TGATTGTCAGTA,-0.299
18,TGAGTAGGGGTA,-0.0749
19,TGAAGCGAGGTA,1.05
20,TGACTAGGTGTA,-0.804
21,TGACACGTCGCA,2.06
22,TGAGCATGTGTA,3.12
23,TGAGGCGAGTTT,-0.321

row,Sequence,binding signal (log2 normalized fluorescence)
1,TGAATGATTGTA,0.0572
2,TGACGAACAGTA,-0.468
3,TGAGTTGCGGTA,-0.73
4,TGACGTACCGTA,-0.228
5,TGACTGGTTGTA,-0.258
6,TGATTTAGGGTA,-1.09
7,TGAGATGTAGTA,-0.645
8,TGAACTTTAGTA,-0.73
9,TGATCTTGCGTA,-0.543
10,TGACACGATTTA,1.27
11,TGACTCTAAGTA,-1.04
12,TGATTCTCTGTA,-1.13
13,TGAAACTGTGTA,-0.413
14,TGACCTACCGTA,-0.467
15,TGACGTCATGTA,0.523
16,TGACAGATTGTA,-0.295
17,TGAGCTACCGTA,-0.852
18,TGACCCTTTGTA,-0.524
19,TGACGCAGGGTA,-0.104
20,TGATAGACGGTA,-0.796
21,TGACAAAAGGTA,-0.313
22,TCTCACGTGGTA,3.5

# — paper PMC5515408
